Changes are numbered by the printed parent chain. Results are given in words; binding and its absence hold for the method and conditions named. Binding seen in cells or lysates may run through a third protein. Some binding calls cover weakened binding; strength is not graded here. For some assays here: Tags and fused reporters may be left off the sequences shown.
What was measured:
[1] = molecular target: T1, APLF (endogenous) (human (endogenous; cell line not stated, all cell lines of the paper are human)) (UniProt Q8IW19); assay: co-IP; endogenous proteins, anti-APLF antibody, with or without cisplatin treatment; western blot
T1 sequence: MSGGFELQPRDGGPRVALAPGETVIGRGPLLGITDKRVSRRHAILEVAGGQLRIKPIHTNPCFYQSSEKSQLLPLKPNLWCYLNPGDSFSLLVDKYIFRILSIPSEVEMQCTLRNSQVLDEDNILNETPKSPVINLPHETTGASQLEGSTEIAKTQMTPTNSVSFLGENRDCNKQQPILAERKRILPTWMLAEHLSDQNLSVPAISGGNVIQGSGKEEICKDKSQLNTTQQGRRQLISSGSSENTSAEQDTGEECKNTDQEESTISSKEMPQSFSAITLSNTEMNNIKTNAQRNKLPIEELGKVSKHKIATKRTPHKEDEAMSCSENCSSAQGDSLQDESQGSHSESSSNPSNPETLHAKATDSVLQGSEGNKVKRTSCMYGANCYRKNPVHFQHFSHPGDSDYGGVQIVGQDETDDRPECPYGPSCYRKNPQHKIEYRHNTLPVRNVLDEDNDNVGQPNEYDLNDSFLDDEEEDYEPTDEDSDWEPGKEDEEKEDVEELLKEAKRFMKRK

Protein sequences, listed by entry. Tags and fused reporters are not part of them.
UniProt Q9BXW9: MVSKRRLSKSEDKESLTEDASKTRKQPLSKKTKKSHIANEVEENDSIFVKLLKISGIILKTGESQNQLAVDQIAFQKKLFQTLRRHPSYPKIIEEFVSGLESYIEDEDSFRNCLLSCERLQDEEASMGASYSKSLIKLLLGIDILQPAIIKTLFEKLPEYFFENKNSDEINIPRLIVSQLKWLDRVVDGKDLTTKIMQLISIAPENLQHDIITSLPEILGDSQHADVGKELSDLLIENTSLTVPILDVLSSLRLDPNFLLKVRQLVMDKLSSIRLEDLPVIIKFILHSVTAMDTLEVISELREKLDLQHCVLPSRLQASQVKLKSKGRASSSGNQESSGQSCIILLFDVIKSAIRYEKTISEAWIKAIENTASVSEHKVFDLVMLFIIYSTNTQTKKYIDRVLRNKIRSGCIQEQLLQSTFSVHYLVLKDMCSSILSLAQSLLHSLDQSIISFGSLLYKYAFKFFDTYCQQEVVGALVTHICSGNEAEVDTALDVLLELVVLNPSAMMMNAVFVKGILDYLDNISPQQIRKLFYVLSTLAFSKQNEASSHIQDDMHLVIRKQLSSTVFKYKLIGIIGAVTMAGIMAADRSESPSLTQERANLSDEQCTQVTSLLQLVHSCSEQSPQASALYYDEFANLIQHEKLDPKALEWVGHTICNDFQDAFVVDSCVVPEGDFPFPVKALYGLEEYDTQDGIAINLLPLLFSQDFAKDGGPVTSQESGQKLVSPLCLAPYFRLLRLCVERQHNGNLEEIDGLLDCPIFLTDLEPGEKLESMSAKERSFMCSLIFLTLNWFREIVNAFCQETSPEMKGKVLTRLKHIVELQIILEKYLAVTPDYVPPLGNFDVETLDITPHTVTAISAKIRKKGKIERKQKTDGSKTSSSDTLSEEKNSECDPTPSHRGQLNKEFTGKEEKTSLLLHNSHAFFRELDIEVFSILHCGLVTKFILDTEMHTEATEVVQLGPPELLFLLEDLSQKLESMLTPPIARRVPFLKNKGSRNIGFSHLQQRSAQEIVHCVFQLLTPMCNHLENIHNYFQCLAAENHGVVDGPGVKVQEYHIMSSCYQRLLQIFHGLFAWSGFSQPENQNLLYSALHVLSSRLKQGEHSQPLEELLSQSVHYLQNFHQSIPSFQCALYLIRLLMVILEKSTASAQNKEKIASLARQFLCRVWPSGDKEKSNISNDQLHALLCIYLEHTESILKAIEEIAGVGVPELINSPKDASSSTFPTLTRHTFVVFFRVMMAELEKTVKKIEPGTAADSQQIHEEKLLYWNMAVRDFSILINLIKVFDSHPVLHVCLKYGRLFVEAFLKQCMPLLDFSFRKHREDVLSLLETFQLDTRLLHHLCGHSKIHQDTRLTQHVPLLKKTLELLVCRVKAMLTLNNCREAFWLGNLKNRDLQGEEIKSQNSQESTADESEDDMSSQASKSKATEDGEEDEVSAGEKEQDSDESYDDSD
UniProt Q06609: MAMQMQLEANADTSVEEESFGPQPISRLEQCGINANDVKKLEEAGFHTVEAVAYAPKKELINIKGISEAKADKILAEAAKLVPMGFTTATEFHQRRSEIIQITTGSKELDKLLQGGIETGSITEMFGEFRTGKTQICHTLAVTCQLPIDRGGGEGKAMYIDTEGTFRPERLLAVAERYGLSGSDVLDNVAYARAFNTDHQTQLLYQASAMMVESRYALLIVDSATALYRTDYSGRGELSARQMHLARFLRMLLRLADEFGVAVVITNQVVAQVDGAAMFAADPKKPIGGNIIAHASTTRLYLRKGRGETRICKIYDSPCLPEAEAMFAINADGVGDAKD

GST-APLF (1–200) (human) = molecular target: T2, GST-APLF (1–200) (human) (UniProt Q8IW19); assay: pull-down; GST-APLF fusion proteins on glutathione beads incubated with total HEK293T lysates (with or without cisplatin treatment) at 4°C for 3 h; wash 50 mM Tris pH 7.5, 150 mM NaCl, 1 mM EDTA, 0.1% Triton X-100; western blot; only the target purified
T2 sequence: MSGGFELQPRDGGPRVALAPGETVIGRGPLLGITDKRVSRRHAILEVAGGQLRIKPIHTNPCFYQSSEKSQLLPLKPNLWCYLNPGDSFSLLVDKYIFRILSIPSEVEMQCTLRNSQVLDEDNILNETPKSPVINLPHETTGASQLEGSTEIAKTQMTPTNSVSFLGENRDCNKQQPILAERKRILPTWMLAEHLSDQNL

[2] = molecular target: T3, GST-tagged APLF PBZ mutant (human) (UniProt Q8IW19); assay: as above
T3 sequence: T1 sequence with C379A, C385A, C421A, C427A

[3] = molecular target: T4, GST-tagged wild type APLF (human) (UniProt Q8IW19); assay: as above
T4 sequence: T1 sequence

GST-APLF (1–110) (human) = molecular target: T5, GST-APLF (1–110) (human) (UniProt Q8IW19); assay: as above
T5 sequence: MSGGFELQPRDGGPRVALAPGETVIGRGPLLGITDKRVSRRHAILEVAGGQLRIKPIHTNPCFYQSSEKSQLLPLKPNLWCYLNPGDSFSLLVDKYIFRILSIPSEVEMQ

[4] = molecular target: T6, FLAG-tagged APLF (WT) (human) (UniProt Q8IW19); assay: co-IP; HEK293T transfected with FLAG-APLF constructs, mock or 100 μM cisplatin for 2 h; Tween lysis buffer (100 mM KCl, 0.1% Tween-20), sonicated lysate; anti-FLAG and protein G-sepharose at 4°C; western blot
T6 sequence: T1 sequence

[5] = molecular target: T7, FLAG-tagged APLF PBZ mutant (C379A, C385A, C421A, C427A) (human) (UniProt Q8IW19); assay: as above
T7 sequence: T1 sequence with C379A, C385A, C421A, C427A

| Substance | binding [1] | binding (GST-APLF (1–200) (human)) | binding [2] | binding [3] | binding (GST-APLF (1–110) (human)) | binding [4] | binding [5] |
| --- | --- | --- | --- | --- | --- | --- | --- |
| FANCD2 (from UniProt Q9BXW9 1-1451) | binds | binds | binds | binds | no binding | binds | binds |
| RAD51 (from UniProt Q06609 1-339) | binds | binds | binds | binds | binds | binds | binds |

Reference: paper PMC11162786
